According to PubChem BioAssay (NCI):
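Test compounds were applied to cells in 96-well plates for 48 hours at 5 doses. The concentration for full growth arrest is given as TGI.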

Key:
Assay in all cases: inhibition of tumour cell growth, NCI panel, 48 h
[1] = test system: OVCAR-8 ovarian
[2] = test system: 786-0 renal
[3] = test system: M14 melanoma
[4] = test system: M19-MEL melanoma
[5] = test system: MOLT-4 leukemia
[6] = test system: OVCAR-5 ovarian
[7] = test system: CCRF-CEM leukemia
[8] = test system: TK-10 renal
[9] = test system: MALME-3M melanoma
[10] = test system: SF-268 CNS
[11] = test system: KM12 colon
[12] = test system: RXF 393 renal
[13] = test system: A549 NSCLC
[14] = test system: LOX IMVI melanoma
[15] = test system: UO-31 renal
[16] = test system: MDA-N
[17] = test system: SNB-75 CNS
[18] = test system: SK-MEL-2 melanoma
[19] = test system: A498 renal
[20] = test system: SF-539 CNS
[21] = test system: UACC-62 melanoma
[22] = test system: HOP-92 NSCLC
[23] = test system: MDA-MB-231 breast
[24] = test system: SNB-19 CNS
[25] = test system: PC-3 prostate
[26] = test system: U251 CNS
[27] = test system: LXFL 529 NSCLC
[28] = test system: HCT-15 colon
[29] = test system: NCI-H23 lung
[30] = test system: HS 578T breast
[31] = test system: NCI-H522 lung
[32] = test system: OVCAR-4 ovarian
[33] = test system: COLO 205 colon
[34] = test system: SK-MEL-5 melanoma
[35] = test system: HT29 colon
[36] = test system: HOP-18 NSCLC
[37] = test system: HOP-62 NSCLC
[38] = test system: UACC-257 melanoma
[39] = test system: EKVX NSCLC
[40] = test system: NCI-H460 lung
[41] = test system: HCC-2998 colon
[42] = test system: IGROV1 ovarian
[43] = test system: SR leukemia
[44] = test system: DMS 273 small cell lung
[45] = test system: SK-MEL-28 melanoma
[46] = test system: SK-OV-3 ovarian
[47] = test system: OVCAR-3 ovarian
[48] = test system: SW-620 colon
[49] = test system: HCT-116 colon
[50] = test system: NCI-H226 lung
[51] = test system: T-47D breast
[52] = test system: MCF7 breast
[53] = test system: SF-295 CNS
[54] = test system: ACHN renal
[55] = test system: SN12C renal
[56] = test system: K-562 leukemia
[57] = test system: RPMI-8226 leukemia
[58] = test system: CAKI-1 renal
[59] = test system: NCI/ADR-RES ovarian
[60] = test system: HL-60(TB) leukemia

Structure (SMILES): CN[C@H]1CCc2cc(OC)c(OC)c(OC)c2-c2ccc(SC)c(=O)cc21
- TGI [1]: 4.47 µM
- TGI [2]: 53.9 µM
- TGI [3]: 24.4 µM
- TGI [4]: > 100 µM
- TGI [5]: > 100 µM
- TGI [6]: 97.1 µM
- TGI [7]: 61.3 µM
- TGI [8]: 98.9 µM
- TGI [9]: > 100 µM
- TGI [10]: 87.9 µM
- TGI [11]: 0.116 µM
- TGI [12]: 74 µM
- TGI [13]: > 100 µM
- TGI [14]: 65 µM
- TGI [15]: > 100 µM
- TGI [16]: > 100 µM
- TGI [17]: 68.4 µM
- TGI [18]: 10.9 µM
- TGI [19]: 7.94 µM
- TGI [20]: 0.0332 µM
- TGI [21]: 34.3 µM
- TGI [22]: 15.9 µM
- TGI [23]: 4.64 µM
- TGI [24]: > 100 µM
- TGI [25]: > 100 µM
- TGI [26]: 22.1 µM
- TGI [27]: > 100 µM
- TGI [28]: 29.4 µM
- TGI [29]: 2.04 µM
- TGI [30]: 4.64 µM
- TGI [31]: 0.0118 µM
- TGI [32]: > 100 µM
- TGI [33]: 0.0464 µM
- TGI [34]: 0.161 µM
- TGI [35]: 0.371 µM
- TGI [36]: > 100 µM
- TGI [37]: 84 µM
- TGI [38]: > 100 µM
- TGI [39]: > 100 µM
- TGI [40]: 21.5 µM
- TGI [41]: 24.1 µM
- TGI [42]: > 100 µM
- TGI [43]: 2.51 µM
- TGI [44]: > 100 µM
- TGI [45]: > 100 µM
- TGI [46]: > 100 µM
- TGI [47]: 0.158 µM
- TGI [48]: > 100 µM
- TGI [49]: 27.5 µM
- TGI [50]: 0.86 µM
- TGI [51]: > 100 µM
- TGI [52]: 22 µM
- TGI [53]: 0.0363 µM
- TGI [54]: 81.1 µM
- TGI [55]: > 100 µM
- TGI [56]: > 100 µM
- TGI [57]: 54.9 µM
- TGI [58]: 85.1 µM
- TGI [59]: > 100 µM
- TGI [60]: 0.0132 µM
